Laboratory results from PubChem BioAssay AID1347073 (National Center for Advancing Translational Sciences (NCATS), 2019).
About 200 (0.44%) of roughly 45,000 compounds were called active. Roughly 7% stayed inconclusive and do not appear here. Calls follow the shape of the dose curve; as a rule, active = well fitted activation curve with a large enough effect; inconclusive = small, poorly fitted or top-dose-only effect; inactive = no such curve, though single readings can be large or run the other way. Some of the results follow.

Assay: qHTS of TDP-43 Inhibitors: NCGC Sytravon Library Screen; also: 0% is about no effect; nearly all actives have a fitted effect of over 55% in size
Settings: yeast TDP-43 toxicity rescue, BacTiter-Glo growth, 24 h; series mostly up to 46.1 µM; growth rescue (activation): at the top concentration
How it was run: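 TDP-43-expressing yeast, pregrown in raffinose, seeded at OD600 0.02 in galactose medium with compound for 24 hr at 30 deg C. Growth read by BacTiter-Glo luminescence, so rescue of toxicity appears as activation.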

Structure (SMILES)	growth rescue (activation)
CCCN(CCC)CC(O)Cn1c2ccccc2c2ccccc21 (centres undefined)	inactive: 4.45%
COCCCN(C(=S)NC(=O)c1ccc(C(C)(C)C)cc1)c1c(N)n(Cc2ccccc2)c(=O)[nH]c1=O	inactive: 17.1%
Cc1cccc(OCCC(=O)Nc2ccccc2C(N)=O)c1	inactive: 2.51%
CCOc1ccc(N2C(=O)CC(NCCc3ccc(S(N)(=O)=O)cc3)C2=O)cc1 (centres undefined)	inactive: 11.4%
Cc1cc(C(=O)CSc2nnc(-c3ccc(F)cc3)o2)c(C)n1CC1CCCO1 (centres undefined)	inactive: 15.1%
O=C(CC1CCCC1)N1CCCC(Nc2cccc(F)c2)C1 (centres undefined)	inactive: 13%
Cc1cccc(CSc2nnc(CCCCCNC(=O)OC(C)(C)C)o2)c1	inactive: 21.8%
Cn1c(CN2CCCC2)nc2cc(NC(=O)COc3ccc([N+](=O)[O-])cc3)ccc21	inactive: 16.9%
COc1ccccc1NC(=O)N1CCN(C)CC1	inactive: 1.75%
O=C(COc1ccc(Br)cc1)N/N=C1/SCC(=O)N1Cc1ccccc1	inactive: 18.8%
CN(C)C(CNC(=O)CNC(=O)Cc1cccc2ccccc12)c1ccccc1 (centres undefined)	inactive: 5.13%
CCCNC1=C(C)C(=O)CC1	inactive: 12.8%
CN(C(=O)CSc1nc(-c2cccs2)nc2ccccc12)C1CCS(=O)(=O)C1 (centres undefined)	inactive: 15.9%
CCOC(=O)c1c(C)[nH]c(C)c1C(=O)COC(=O)[C@@H](NC(=O)c1ccco1)C(C)C	inactive: 8.95%
O=C(CN(C(=O)CCC(=O)Nc1nccs1)c1ccc(F)c(Cl)c1)NCC1CCCO1 (centres undefined)	inactive: -3.56%
O=C(NCc1cnn(-c2ccc(F)cc2)c1)C1CCC(=O)N(C2CC2)C1 (centres undefined)	inactive: 10.3%
C=CCOc1ccc(CN(C)C(=O)CN2C(=O)c3ccccc3C2=O)cc1	inactive: 20.8%
COc1ccccc1C(CNC(=O)c1cc(C)nc2ccccc12)N(C)C (centres undefined)	inactive: 6.79%
CN(C(=O)C1CCN(S(=O)(=O)c2cccs2)CC1)c1ccccc1	inactive: -3.77%
O=C(Nc1cccc(Cl)c1)C1C2C=CC3(O2)C1C(=O)N(CCCN1CCCCC1)C3C(=O)NC1CCCCC1 (centres undefined)	inactive: 9.39%
O=C(CCC(=O)c1cccs1)NCc1ccccc1Cl	inactive: 15.3%
Cc1ccc(NC(=O)CSc2n[nH]c(-c3ccccn3)n2)cc1	inactive: 3.54%
Cc1ccccc1-c1nnc(SCC(=O)N(CC(C)C)c2c(N)n(CC(C)C)c(=O)[nH]c2=O)n1C	inactive: 28.9%
Nc1cccc(Oc2ccc3c(c2)C(=O)N(CCO)C3=O)c1	inactive: -3.68%
O=C(NCC(=O)N1CCOCC1)c1ccc(Cl)c(Cl)c1	inactive: -3.26%
Cc1c(C(=O)NCc2cccc(Br)c2)oc2ccc3c(c12)C(=O)CC(C)(C)O3	inactive: 33.2%
CCc1cccc(C)c1NC(=O)c1ccccc1	inactive: -13.1%
COC(=O)c1ccc(CN2CCN(C3CCCCC3)C(CCO)C2)cc1 (centres undefined)	inactive: 14.6%
CCc1nnc(NC(=O)CSc2nc3cc(OC)c(OC)cc3cc2C)s1	inactive: 1.85%
